Results taken from PubChem BioAssay AID2147 (National Center for Advancing Translational Sciences (NCATS), 2009).
Values joined by “and” are separate entries in the source; they are usually repeats but may differ in a detail not shown here. Identical values can stand only once. Hit rate of the full screen: of about 230,000 compounds, about 3,600 (1.6%) were called active. The shares of active, inactive and inconclusive entries below differ from those in the screen. Calls come from the whole dose curve; as a rule, active = well fitted inhibition curve with a large enough effect (not every such curve was filed as active); inconclusive = small, poorly fitted or top-dose-only effect, or another doubt; inactive = no such curve, though single readings can be large or run the other way. Where the call is inconclusive, the potency comes from a doubtful curve fit.

molecular target: Lysine-specific demethylase 4E (Homo sapiens) (UniProt B2RXH2); test: qHTS Assay for Inhibitors of Human Jumonji Domain Containing 2E (JMJD2E); conditions: JMJD2E catalytic domain, FDH-coupled NADH fluorescence (FDH is formaldehyde dehydrogenase); series mostly up to 57.1 µM
Note: nearly all actives have a fitted effect of over 50% in size.
Potency is the fitted concentration of half-maximal effect; tags give direction and shape of the fitted curve.

UniProt B2RXH2, sequence (B2RXH2 whole entry, looked up, the tested form may be a part): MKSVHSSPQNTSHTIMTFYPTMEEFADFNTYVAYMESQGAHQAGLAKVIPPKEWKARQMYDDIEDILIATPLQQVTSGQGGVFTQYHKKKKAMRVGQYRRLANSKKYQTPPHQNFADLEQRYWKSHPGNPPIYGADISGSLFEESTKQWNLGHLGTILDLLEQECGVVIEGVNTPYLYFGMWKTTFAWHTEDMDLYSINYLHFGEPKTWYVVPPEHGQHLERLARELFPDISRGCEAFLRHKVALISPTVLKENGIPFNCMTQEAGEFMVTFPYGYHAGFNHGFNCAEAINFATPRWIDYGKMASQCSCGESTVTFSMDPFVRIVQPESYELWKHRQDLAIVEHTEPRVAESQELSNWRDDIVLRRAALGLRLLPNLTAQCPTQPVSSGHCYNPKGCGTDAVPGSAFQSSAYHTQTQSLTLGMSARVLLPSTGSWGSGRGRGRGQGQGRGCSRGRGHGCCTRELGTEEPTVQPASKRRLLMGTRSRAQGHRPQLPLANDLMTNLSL

SMILES | Potency
CC(=O)N(C)c1ccc(NC(=S)Nc2cccc3ccccc23)cc1 | inconclusive: 14.1 µM [inhibitor, partial curve]
Cc1ccc2nc(Cn3cc(C(F)(F)F)cc(Cl)c3=O)cc(=O)n2c1 | inconclusive: 31.6 µM [inhibitor, partial curve]
Cc1nc(N2CCC(C)CC2)c2c(C)c(C(=O)Nc3ccc(C(F)(F)F)cc3)sc2n1 | inconclusive: 31.6 µM [inhibitor, partial curve]
Cc1ccc(-c2nnc(SCC(=O)Nc3ccc(S(=O)(=O)N4CCCCCC4)cc3)o2)cc1 | inconclusive: 39.8 µM [inhibitor, single point]
Cn1cccc1C(=O)Nc1nc(-c2ccccn2)cs1 | inconclusive: 6.31 µM [inhibitor, single point]
Cn1c(=N)c(S(=O)(=O)c2ccccc2)cc2c(=O)n3ccccc3nc21 | inconclusive: 14.1 µM [inhibitor, partial curve]
COc1ccc(N2C(=O)C3C(C2=O)C(C(=O)c2ccccc2)N2CCCC32)cc1 (stereo not drawn) | inconclusive: 22.4 µM [inhibitor, single point]
COc1cc(/C=C/C(=O)OCC(=O)NC(=O)NC(C)(C)C)cc(OC)c1OC | inconclusive: 31.6 µM [inhibitor, partial curve]
NC(N)=Nc1nc2ccc(Cl)cc2c(=O)[nH]1 | inconclusive: 8.91 µM [inhibitor, partial curve]
CN1C(=O)C(CC(=O)O)S/C1=N\N=C\c1ccc(O)cc1O (stereo not drawn) | active: 25.1 µM
Clc1ccc2[nH]c3c(NCCN4CCOCC4)ncnc3c2c1 | inconclusive: 39.8 µM [inhibitor, single point]
COC(=O)[C@@]1(Cc2ccc(F)cc2)[C@H]2c3cc(C(=O)N4CCCC4)n(CC4CC4)c3C[C@H]2CN1C(=O)c1ccccc1 | inconclusive: 39.8 µM [inhibitor, single point]
COc1cccc(OCC(=O)Nc2ccccc2-c2ccccc2)c1 | inconclusive: 17.8 µM [inhibitor, partial curve]
Nc1ccc(Oc2ccc(F)cc2)nc1 | inconclusive: 35.5 µM [inhibitor, single point]
Cc1cccc2nc(COc3ccc(-c4ccccc4)cc3)cn12 | inconclusive: 39.8 µM [inhibitor, single point]
COC(=O)c1[nH]c2ccc(F)cc2c1NC(=O)CCN1CCN(Cc2ccc3c(c2)OCO3)CC1 | inconclusive: 28.2 µM [inhibitor, partial curve]
CCC(C)NC(=O)c1ccccc1NS(=O)(=O)c1ccc(OC)c(OC)c1 (stereo not drawn) | inconclusive: 28.2 µM [inhibitor, single point]
Cc1ccc(/C=C/C(=O)c2ccc(N3CCOCC3)cc2)s1 | inactive
O=C(COC(=O)c1ccccc1Nc1cccc(C(F)(F)F)c1)NCc1ccco1 | inconclusive: 35.5 µM [inhibitor, single point]
CCOC(=O)Cn1cnc2c(cnn2-c2ccc(Cl)cc2)c1=O | inactive
Cc1nc(CNC(=O)CC2C(=O)NCCN2Cc2ccoc2)nc2c1CCCC2 (stereo not drawn) | inactive
CCOC(=O)C1=C(CC)Nc2ccccc2N=C1NC(=O)c1ccc(S(=O)(=O)N2CCCC2)cc1 | inactive
CCCC(C)C(=O)Nc1nc(C)c(-c2csc(Nc3cc(OC)ccc3OC)n2)s1 (stereo not drawn) | inconclusive: 39.8 µM [inhibitor, single point]

SMILES | Potency
COc1cc(/C=C(/C#N)C(=O)Nc2ccc(Cl)cc2)ccc1Oc1nc(Cl)ncc1F | inconclusive: 7.08 µM [inhibitor, single point]
Cc1c2cnn(CC(=O)Nc3c(F)c(F)cc(F)c3F)c(=O)c2c(C)n1Cc1ccc(F)cc1 | inconclusive: 31.6 µM [inhibitor, single point]
CCOC(=O)c1ccccc1NC(=O)Nc1ccc(OC)c(OC)c1 | inactive
COC(=O)c1[nH]c2ccc(Cl)cc2c1NC(=O)CCN1CCOCC1 | inconclusive: 28.2 µM [inhibitor, partial curve]
Cc1sc(NC(=O)CSc2nnc(C(C)C)n2C)c(C#N)c1C | inactive
CN(C(=O)COC(=O)c1ccc([N+](=O)[O-])cc1)c1ccccc1 | inactive
CCN1C(=O)/C(=c2\sc3nc(=O)c(Cc4ccccc4)nn3c2=O)c2ccccc21 | inactive
COC(=O)c1c(NC(=O)COC(=O)c2ccc(O)cc2)sc2c1CCCCC2 | inconclusive: 3.55 µM [inhibitor, partial curve]
O=C(O)c1cc(-c2ccc(Cl)s2)nc2ccccc12 | inconclusive: 28.2 µM [inhibitor, partial curve]
COc1cc(OC)c(C(=O)NCC2CCCO2)cc1OC (stereo not drawn) | inconclusive: 28.2 µM [inhibitor, single point]
O=C1c2cccc3cccc(c23)C(=O)N1CCN1CCN(CC(O)COc2ccccc2)CC1 (stereo not drawn) | inconclusive: 39.8 µM [inhibitor, single point]
O=C(O)c1ccc2c(c1)C(=O)N(c1nccs1)C2=O | inactive
CCN(CC)C(=O)c1cc2c(=O)c3cc(F)ccc3oc2nc1C | inconclusive: 31.6 µM [inhibitor, single point]
OCCNc1c2ccccc2nc2c(F)c(F)c(F)c(F)c12 | inconclusive: 15.8 µM [inhibitor, partial curve]
COc1cc(/C=C2/SC(=S)N(c3ccccc3)C2=O)ccc1Oc1nc(N2CCOCC2)nc(N2CCOCC2)n1 | inactive
C=CCn1c(-c2ccccc2)ccc(C#N)c1=O | inconclusive: 39.8 µM [inhibitor, single point]
CN(Cc1ccccc1)c1ncnc2c1cnn2-c1ccccc1 | inconclusive: 39.8 µM [inhibitor, single point]
O=C(NN1C(=O)c2ccccc2NC1c1ccco1)c1ccc(Br)cc1 (stereo not drawn) | inconclusive: 35.5 µM [inhibitor, single point]
COc1c2ccoc2nc2c(OC)c(OC[C@H](O)C(C)(C)O)ccc12 | inconclusive: 14.1 µM [inhibitor, partial curve]
Cn1c(-c2ccc(C=O)s2)nc2c3ccccc3c3ccccc3c21 | inconclusive: 12.6 µM [inhibitor, partial curve]
Cc1ccc(-n2c(-c3cc(-c4ccco4)[nH]n3)n[nH]c2=S)c(Br)c1 | inactive
N[C@H](C(=O)O)[C@@H]1[C@@H](C(=O)O)C1(F)F | active: 15.8 µM
Cc1cc(=O)oc2cc(OCC(=O)OCC(=O)Nc3ccccc3F)ccc12 | inconclusive: 28.2 µM [inhibitor, partial curve]

SMILES | Potency
O=c1c2c(-c3cccs3)csc2ncn1/N=C/c1ccc(OC(F)F)cc1 | inconclusive: 39.8 µM [inhibitor, single point]
O=C(Nc1ccccc1)c1ccccc1N=Cc1cccc(O)c1 | inconclusive: 28.2 µM [inhibitor, partial curve]
O=C(Nc1cccc(-c2cn3cccnc3n2)c1)c1cccs1 | inconclusive: 25.1 µM [inhibitor, partial curve]
C/C=C/c1ccc(OCC(O)CN2CCCCCCC2)c(OC)c1 (stereo not drawn) | inconclusive: 22.4 µM [inhibitor, single point]
O=c1c2c(nc3cc(-c4cccc(Cl)c4)[nH]n13)CCC2 | inconclusive: 31.6 µM [inhibitor, partial curve]
Cc1ccc(NC(=O)c2sc3nc[nH]c(=O)c3c2C)c(C)c1 | inconclusive: 39.8 µM [inhibitor, single point]
COCCN1C=C(C(=O)OC)C(c2ccccc2Cl)C(C(=O)OC)=C1 | inconclusive: 25.1 µM [inhibitor, partial curve]
Cc1nn(-c2ccccc2)c2c1C(c1ccc([N+](=O)[O-])cc1)C(C#N)=C(N)O2 (stereo not drawn) | active: 17.8 µM
CCOc1ccccc1N1CCN(C(=O)CCCN2C(=O)c3cccc4cccc(c34)C2=O)CC1 | inconclusive: 14.1 µM [inhibitor, partial curve]
CC(=O)Nc1sc(-c2ccccc2)nc1-c1ccccc1 | inconclusive: 25.1 µM [inhibitor, single point]
CCOC(=O)C1CCCCN1Cc1ccc(F)cc1 (stereo not drawn) | inconclusive: 25.1 µM [inhibitor, single point]
CC(C)c1ccc(-n2c(-c3ccccc3)c[n+]3c2CCc2ccccc2-3)cc1 | inactive
CC(=O)Nc1cccc(-c2nc3ccc(NC(C)=O)cc3s2)c1 | inconclusive: 31.6 µM [inhibitor, partial curve]
Cc1cc(=O)oc2c(C(=O)/C=C\c3cccs3)c(O)ccc12 | inactive
O=C1Cc2ccccc2C(=O)N1Cc1ccccc1 | inactive
CCOC(=O)/C=C/C(=O)OCC(=O)Nc1c(Cl)cccc1Cl | inactive
N#CC(C#N)=C/C(C#N)=C(/N)N1CCN(c2ccc(Cl)cc2)CC1 | inconclusive: 39.8 µM [inhibitor, single point]
CC(NC(=O)C12CC3CC(CC(C3)C1)C2)C(=O)NCCN(C)C (stereo not drawn) | inconclusive: 31.6 µM [inhibitor, partial curve]
O=C(Cc1cccc2ccccc12)N/N=C/c1ccc(Sc2cccc3cccnc23)o1 | inconclusive: 35.5 µM [inhibitor, single point]
c1ccc(C2=Nn3c(nnc3-c3ccncc3)SC2)cc1 | inactive
Cc1ccc(NC(=O)C2C3/C=C\CCCCC32)cc1 (stereo not drawn) | inactive
Nc1c2ccccc2nc2ccccc12 | inconclusive: 25.1 µM [inhibitor, partial curve] and inconclusive: 31.6 µM [inhibitor, partial curve]
